Results from PubChem BioAssay AID686979 (National Center for Advancing Translational Sciences (NCATS), 2013).
Screen size: about 420,000 compounds; about 50,000 (12%) were called active. The inconclusive results got no clear call from the source; some entries with a clear call stand among them for comparison. Calls follow the shape of the dose curve; as a rule, active = well fitted inhibition curve with a large enough effect; inconclusive = small, poorly fitted or top-dose-only effect; inactive = flat fitted curve, though single readings scatter. Potencies of inconclusive entries are left out as doubtful fits.

experiment: qHTS for Inhibitors of human tyrosyl-DNA phosphodiesterase 1 (TDP1): qHTS in cells in presence of CPT; details: chicken DT40 Tdp1-/-;hTDP1 cells + 20 nM CPT, ATP luminescence, 48 h; activity change, negative = growth inhibition: at 46.2 µM (top of the series) unless noted; also: nearly all actives have a fitted effect of over 55% in size
Summary of the method: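 Chicken DT40 Tdp1-/- cells complemented with human TDP1, 400 cells/well, exposed to compounds plus 20 nM camptothecin for at least 48 h at 37 C; viability read as ATP content by CellTiter-Glo luminescence.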
% is scaled to controls: 0 for no effect and ±100 for the full control effect; potency is read from the fitted curve at half-maximal effect; tags tell the direction and shape of the fitted curve.

**Q.** With `CCCc1cc(C(=O)N2CCN(S(=O)(=O)c3ccc(OC)c(OC)c3)CC2)cs1` as the compound, how does the Potency read?
**A.** The Potency was inconclusive [inhibitor, partial curve].

**Q.** For `O=C(c1cc2c(s1)CCCC2)N1CCN(S(=O)(=O)c2ccccc2)CC1`, which Potency is on record?
**A.** Its Potency is “inactive”.

**Q.** With `COc1ccc(NC(=O)CSc2nnc(C(C)C)n2N)cc1` as the compound, how does the Potency read?
**A.** Its Potency is “inactive”.

**Q.** Which Potency does the source give for `CCc1nc2ccc(C(=O)NCCCn3ccnc3)cn2c1N(C)Cc1ccc(N(C)C)cc1` here?
**A.** The Potency was inconclusive [inhibitor, partial curve].

**Q.** With `CCOc1ccc2[nH]c3c(N4CCN(c5ccccn5)CC4)ncnc3c2c1` as the compound, how does the Potency read?
**A.** The Potency was active: 8.91 µM.

**Q.** Which Potency does the source give for `CCc1ccc(Sc2cc(C(=O)NCCCOC(C)C)c3ccccc3n2)cc1` here?
**A.** Its Potency is inconclusive [inhibitor, single point].

**Q.** With `CCN1C(=O)[C@@H]2[C@H](C1=O)[C@@H]1C(=O)Nc3ccccc3C(=O)N1[C@@H]2c1ccc(Br)cc1` as the compound, how does the Potency read?
**A.** Its Potency is “inactive”.

**Q.** Which Potency does the source give for `CCOCCn1c(SC)nc2c1c(=O)[nH]c(=O)n2C` here?
**A.** The Potency was inconclusive [inhibitor, single point].

**Q.** With `Cn1c(=O)[nH]c(=O)c2c1nc(N1CCNCC1)n2CCOc1ccccc1` as the compound, how does the Potency read?
**A.** The Potency was inconclusive [inhibitor, single point].

**Q.** Which Potency does the source give for `N#Cc1c(NC(=O)c2ccc(-c3ccccc3[N+](=O)[O-])o2)sc2c1CCCC2` here?
**A.** The Potency was “inactive”.

**Q.** For `Cc1csc(SCC(=O)Nc2cccc(S(=O)(=O)N3CCOCC3)c2)n1`, which Potency is on record?
**A.** Its Potency is inconclusive [inhibitor, single point].

**Q.** With `CCCOC(=O)c1cc(=O)[nH]c2ccccc12` as the compound, how does the Potency read?
**A.** Its Potency is “inactive”.

**Q.** For `O=C(NC(c1ccc(Cl)cc1)c1cc(Cl)c2cccnc2c1O)c1cccnc1` (stereo not given), which Potency is on record?
**A.** Its Potency is active: 5.17 µM.

**Q.** For `CC(C(=O)NC1CCCC1)N(C(=O)c1ccc(-c2ccccc2)[nH]1)c1ccccc1F` (stereo not given), which Potency is on record?
**A.** Its Potency is “inactive”.

**Q.** Which activity change, negative = growth inhibition does the source give for `Cc1ccc(-c2cc(C(=O)NC3=NCCS3)c3ccccc3n2)cc1C` here?
**A.** Its activity change, negative = growth inhibition is inconclusive: -30.6% [inhibitor].

**Q.** Which Potency does the source give for `CC(=O)N1CCC(N(CCN2CCOCC2)C(=S)Nc2ccc(C)cc2)CC1` here?
**A.** The Potency was “inactive”.

**Q.** For `COc1ccc(S(=O)(=O)Nc2ccc(-c3ccc4nncn4n3)cc2)c(OC)c1`, which Potency is on record?
**A.** Its Potency is active: 9.2 µM.

**Q.** With `COc1ccc(NC2=Nc3cccc4cccc2c34)cc1` as the compound, how does the Potency read?
**A.** Its Potency is inconclusive [inhibitor, single point].

**Q.** With `Cc1cc(N2CCN(C)CC2)nc2ccc(NC(=S)NCCN3CCc4ccccc4C3)cc12` as the compound, how does the Potency read?
**A.** The Potency was inconclusive [inhibitor, single point].

**Q.** For `O=C(Nc1ccccc1)C1=C[C@@H](c2coc3ccccc3c2=O)C[C@@H](OCCCCO)O1`, which Potency is on record?
**A.** The Potency was inconclusive [inhibitor, single point].

**Q.** Which Potency does the source give for `CCN(Cc1ccncc1)Cc1nc(Cc2ccccc2Cl)no1` here?
**A.** The Potency was inconclusive [inhibitor, single point].

**Q.** With `CC1Nc2ccccc2C(=O)N1NC(=O)c1ccc(Br)cc1` (stereo not given) as the compound, how does the Potency read?
**A.** Its Potency is “inactive”.

**Q.** Which Potency does the source give for `CCCn1c(=O)c2sccc2n2c(CCCC(=O)N3CCN(c4cccc(C)c4C)CC3)nnc12` here?
**A.** Its Potency is active: 20.6 µM.

**Q.** For `CCOC(=O)C(=O)Nc1ncc(Cl)s1`, which Potency is on record?
**A.** Its Potency is inconclusive [inhibitor, single point].

**Q.** For `CC(=O)N(Cc1cccnc1)c1nc2c(C)cccc2s1`, which Potency is on record?
**A.** The Potency was inconclusive [inhibitor, single point].

**Q.** For `Cn1cc(-c2cc3n(n2)CCC(=O)N3CCCC(=O)Nc2ccc(F)cc2F)c2ccccc21`, which Potency is on record?
**A.** The Potency was inconclusive [inhibitor, single point].

**Q.** With `Cc1cc(CC(C)C)n(-c2nc3ccccc3c(=O)n2OCc2ccccc2)n1` as the compound, how does the Potency read?
**A.** Its Potency is inconclusive [inhibitor, single point].

**Q.** Which Potency does the source give for `CC1=Nc2cccc3cccc(c23)N1` here?
**A.** Its Potency is inconclusive [inhibitor, single point].

**Q.** With `Cc1cc(C)cc(-n2ccnc2SCC(=O)Nc2ccc3c(c2)OCO3)c1` as the compound, how does the Potency read?
**A.** The Potency was inconclusive [inhibitor, single point].

**Q.** For `Nc1nc(NCc2ccco2)nc(N2CCCCCC2)c1[N+](=O)[O-]`, which Potency is on record?
**A.** The Potency was active: 20.6 µM.

**Q.** With `COC(=O)[C@]12CCCCC=C1N(CCC1=CCCCC1)C(=O)[C@H](CC(=O)NCC13CC4CC(CC(C4)C1)C3)C2` as the compound, how does the Potency read?
**A.** Its Potency is inconclusive [inhibitor, single point].

**Q.** For `CC(C)Cn1c(SCC(=O)Nc2ccc3[nH]c(=O)[nH]c3c2)nc2ccccc2c1=O`, which Potency is on record?
**A.** The Potency was inconclusive [inhibitor, single point].

**Q.** For `COc1ccc(-c2csc(N3CCN(C(=O)c4ccco4)CC3)n2)cc1`, which Potency is on record?
**A.** The Potency was inconclusive [inhibitor, single point].

**Q.** Which Potency does the source give for `CCC1(c2ccc(F)cc2)NC(=O)N(CC(=O)Nc2ccc(C)c(S(=O)(=O)N3CCOCC3)c2)C1=O` (stereo not given) here?
**A.** The Potency was “inactive”.

**Q.** For `COc1cc(CNc2ncnc3c2ncn3[C@H]2CN(Cc3cccc(C(F)(F)F)c3)C[C@@H](COC(C)=O)O2)cc(OC)c1OC`, which Potency is on record?
**A.** The Potency was inconclusive [inhibitor, single point].

**Q.** With `CNC(=O)/C(C#N)=C/c1c(N2CCN(c3ccc(OC)cc3)CC2)nc2c(C)cccn2c1=O` as the compound, how does the Potency read?
**A.** The Potency was inconclusive [inhibitor, single point].

**Q.** With `COCCCNC(=S)NCCNc1nc2cc(C)cc(C)c2cc1C#N` as the compound, how does the Potency read?
**A.** Its Potency is inconclusive [inhibitor, single point].

**Q.** Which Potency does the source give for `CC(C)[C@@H]1Cc2[nH][nH]c(=O)c2[C@H](C(C)C)O1` here?
**A.** The Potency was “inactive”.

**Q.** For `CCOC(=O)[C@]12CCCC=C1N(Cc1ccc3c(c1)OCO3)C(=O)[C@H](CC(=O)NCCCCc1ccccc1)C2`, which Potency is on record?
**A.** The Potency was inconclusive [inhibitor, single point].

**Q.** For `CC1(C)Cn2c(nnc2-c2cccc(O)c2)S1`, which Potency is on record?
**A.** Its Potency is “inactive”.

**Q.** Which Potency does the source give for `COc1cccc(OCc2cc(C(=O)N3CCN(C(C)=O)CC3)no2)c1` here?
**A.** The Potency was “inactive”.

**Q.** With `COc1ccc(CCn2c(=O)c3cccnc3n(CC(=O)Nc3cccc(C)c3)c2=O)cc1OC` as the compound, how does the Potency read?
**A.** Its Potency is “inactive”.

**Q.** Which Potency does the source give for `CC1CCCC(C)N1C(=O)COc1ccc(C(=O)N/N=C/c2ccc(C(=O)O)cc2)cc1` (stereo not given) here?
**A.** Its Potency is “inactive”.

**Q.** Which results are given for `CCOC(=O)C1CCN(C(=O)Cn2nc(C)n3c(cc4cc(C)ccc43)c2=O)CC1`?
**A.** Potency: inconclusive [inhibitor, single point]; activity change, negative = growth inhibition: inconclusive: -31.9% [inhibitor]
